Reference: the supplement of paper PMC4996465
Viability of KB3-1 and Nalm-6 cells after 48 h of drug alone (CellTiter-Glo), 11 doses over about 4.5 log units. % of DMSO wells, lower = more cell loss; AC50 from the fitted curve, lower = more potent. No active / inactive call. Nalm-6 was screened in two runs. AC50 is listed only for well-fitted inhibitory curves. KB3-1 is a HeLa-derived carcinoma line, Nalm-6 a B-cell precursor leukaemia line.

How the values were obtained:
[1] = system: KB3-1; test: viability (% of DMSO control); higher = more viable cells
Protocol: (§1)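 Eleven-dose screen of the NCATS MIPE 3 library on cells without co-treatment; CellTiter-Glo after 48 h, as % of DMSO wells.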

[2] = system: KB3-1; test: log AC50 of viability decrease (48 h) (log10 M); higher = less potent
Protocol: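 Eleven-dose screen of the NCATS MIPE 3 library on cells without co-treatment; CellTiter-Glo after 48 h. AC50 from the curve fit; only inhibitory curves of the better fit classes are listed.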

[3] = system: Nalm-6; test: viability (% of DMSO control); higher = more viable cells
Protocol: as §1

O=C(CCCCCCC(=O)Nc1ccccc1)NO [Vorinostat]
[1]
Details | viability [%]
0.00156 µM | 103
0.00468 µM | 103
0.014 µM | 96.8
0.0421 µM | 97.2
0.126 µM | 88.7
0.379 µM | 62.2
1.14 µM | 41.1
3.41 µM | 32
10.2 µM | 21.8
30.7 µM | 17.8
92.2 µM | 15.7

Details | log AC50 of viability decrease
[2] | -6.32

CC(C)C1NC(=O)[C@@H](NC(=O)C2=C3\N=C\4/C(=C(/C)C(=O)\C(=C4C(=O)N[C@H]5[C@@H](C)OC(=O)C(C(C)C)N(C)C(=O)CN(C)C(=O)[C@@H]6CCCN6C(=O)C(NC5=O)C(C)C)N)OC3=C(C)C=C2)[C@@H](C)OC(=O)C(C(C)C)N(C)C(=O)CN(C)C(=O)[C@@H]7CCCN7C1=O (some centres not stated) [Actinomycin D]
Details | viability [%]
[1], 0.00078 µM | 67.1
[1], 0.00234 µM | 56.7
[1], 0.00702 µM | 8.56
[1], 0.0211 µM | 13.5
[1], 0.0632 µM | 15.4
[1], 0.19 µM | 16.1
[1], 0.569 µM | 13
[1], 1.71 µM | 13.1
[1], 5.12 µM | 11.8
[1], 15.4 µM | 11.4
[1], 46.1 µM | 16.2
[3], run: 1, 0.00078 µM | 7.21
[3], run: 1, 0.00234 µM | 6.04
[3], run: 1, 0.00702 µM | 5.84
[3], run: 1, 0.0211 µM | 13.5
[3], run: 1, 0.0632 µM | 27.1
[3], run: 1, 0.19 µM | 31.5
[3], run: 1, 0.569 µM | 31.8
[3], run: 1, 1.71 µM | 35.4
[3], run: 1, 5.12 µM | 35.3
[3], run: 1, 15.4 µM | 36.8
[3], run: 1, 46.1 µM | 29.6
[3], run: 2, 0.00078 µM | 7.09
[3], run: 2, 0.00234 µM | 5.79
[3], run: 2, 0.00702 µM | 6.14
[3], run: 2, 0.0211 µM | 17
[3], run: 2, 0.0632 µM | 35
[3], run: 2, 0.19 µM | 38.4
[3], run: 2, 0.569 µM | 38.1
[3], run: 2, 1.71 µM | 46.4
[3], run: 2, 5.12 µM | 48.8
[3], run: 2, 15.4 µM | 43.1
[3], run: 2, 46.1 µM | 34

Details | log AC50 of viability decrease
[2] | -8.53

CC1=C(C)C2=C(S1)[N]3C(=NN=C3[C@H](CC(=O)OC(C)(C)C)/N=C2/C4=CC=C(Cl)C=C4)C [JQ1]
[1]
Details | viability [%]
0.00078 µM | 100
0.00234 µM | 103
0.00702 µM | 97
0.0211 µM | 97.5
0.0632 µM | 92.8
0.19 µM | 84.9
0.569 µM | 69.5
1.71 µM | 61.9
5.12 µM | 56.8
15.4 µM | 53
46.1 µM | 8.68

Details | log AC50 of viability decrease
[2] | -4.98

Cc1[nH]c2ccccc2c1CCNCc1ccc(/C=C/C(=O)NO)cc1 [Panobinostat]
[1]
Details | viability [%]
0.00078 µM | 108
0.00234 µM | 102
0.00702 µM | 86.7
0.0211 µM | 71.6
0.0632 µM | 42.8
0.19 µM | 21.9
0.569 µM | 15.8
1.71 µM | 14.9
5.12 µM | 15.6
15.4 µM | 14.9
46.1 µM | 11.7

Details | log AC50 of viability decrease
[2] | -7.53

Oc1cccc(-c2nc(N3CCOCC3)c3oc4ncccc4c3n2)c1 [PI-103]
[1]
Details | viability [%]
0.00078 µM | 103
0.00234 µM | 106
0.00702 µM | 100
0.0211 µM | 95
0.0632 µM | 78.8
0.19 µM | 57.3
0.569 µM | 47.6
1.71 µM | 34.6
5.12 µM | 41
15.4 µM | 39.3
46.1 µM | 36.5

Details | log AC50 of viability decrease
[2] | -7.03
